The whole screen tested about 420,000 compounds, of which about 64,000 (15%) were called active. Inconclusive results, whose numbers are uncertain, are shown with a selection of clear calls. The call rests on the fitted dose curve; in most records, active means well fitted inhibition curve with a large enough effect; inconclusive means small, poorly fitted or top-dose-only effect; inactive means flat fitted curve, though single readings scatter. No potency is given beside an inconclusive call; the fits are too rough.
Assay: qHTS for Inhibitors of human tyrosyl-DNA phosphodiesterase 1 (TDP1): qHTS in cells in absence of CPT; further: nearly all actives have a fitted effect of over 55% in size
Details: DT40 Tdp1-/- hTDP1 cells, no CPT, ATP luminescence, 48 h; activity change, negative = growth inhibition: at 46.2 µM (top of the series)
Method in brief: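 Compound effects on proliferation are scored in DT40 Tdp1-/-;hTDP1 cells in the absence of CPT. ATP levels (CellTiter-Glo luminescence) are recorded after a ≥48 hr, 37 °C incubation.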
On the % scale 0 is the no-effect control and ±100 the full control effect; potency means the concentration at half of the fitted maximal effect; tags describe the fitted curve by direction and shape.

| SMILES | Potency | activity change, negative = growth inhibition |
| --- | --- | --- |
| FC(F)(F)C(F)(F)c1nc2nc(Cl)c(Cl)nc2[nH]1 | inconclusive [inhibitor, single point] | – |
| COc1ccc(CN2CC(C(=O)NCCc3ccc(Cl)cc3)CC2=O)cc1 (stereo unspecified) | – | inactive: 6.36% |
| O=C(Nc1ccc(NC(=O)c2sc3ccccc3c2Cl)cc1Cl)c1ccco1 | inconclusive [inhibitor, partial curve] | – |
| COc1ccc(/C=N/NC(=O)c2ccncc2)cc1CSc1nc2ccccc2s1 | inconclusive [inhibitor, single point] | – |
| O=C(CCn1c(=O)c2sccc2n(CC(=O)NCc2ccco2)c1=O)NCc1ccccc1 | – | inactive: -5.03% |
| COc1ccccc1CN1CCC(n2nccc2NC(=O)CCOc2ccccc2)CC1 | inconclusive [inhibitor, partial curve] | – |
| CC(C)CCNC(=O)c1cc2cc(S(=O)(=O)N3CCCCC3)ccc2n1C | inconclusive [inhibitor, single point] | – |
| Cn1c(=O)oc2cc(S(=O)(=O)N3CCCC(C(=O)NCc4ccc(F)cc4)C3)ccc21 (stereo unspecified) | inconclusive [inhibitor, partial curve] | – |
| CSc1ccc(CN(C)C(=O)COc2ccc(C(=O)c3ccccc3)cc2)cc1 | active: 14.6 µM | – |
| O=C(Nc1ccc(F)c(Cl)c1)N1CC=C(c2c[nH]c3ccccc23)CC1 | active: 16.4 µM | – |
| COc1ccccc1NC(=O)CCSc1nnc(-c2ccc(O)cc2)o1 | – | inactive: -19.5% |
| CCCN(CCC)C(=O)c1cc2c(=O)[nH]c3ccc(C)cc3c2s1 | active: 16.4 µM | – |
| CCOC(=O)c1sc2nc(N3CCOCC3)c3c(c2c1N)CC(C(C)C)OC3 (stereo unspecified) | – | inactive: -13.4% |
| O=C(NC1CCN(CCc2c[nH]c3ccccc23)CC1)c1ccccc1 | inconclusive [inhibitor, single point] | – |
| O=C(NCCc1ccccc1Cl)c1sc2ncccc2c1-n1cccc1 | inconclusive [inhibitor, single point] | – |
| COc1ccc(C)cc1NC1=C(Cl)C(=O)N(C2CCCCC2)C1=O | active: 11.6 µM | – |
| Cc1occc1-c1nnc(SCC(=O)c2c(N)n(C3CC3)c(=O)[nH]c2=O)n1C | – | inactive: 1.1% |
| CCC(=O)N1c2ccccc2CC1C(=O)NCCc1ccccc1 (stereo unspecified) | – | inactive: 7.97% |
| COc1cccc(OC)c1C(=O)Nc1ccc2c(c1)Cc1ccccc1-2 | inconclusive [inhibitor, single point] | – |
| COc1cccc(Cn2nnc3c(=O)[nH]c(C4CCN(C(=O)c5ccccc5Cl)CC4)nc32)c1 | inconclusive [inhibitor, single point] | – |
| O=C(COc1ccc(Cl)cc1)Nc1cccc(S(=O)(=O)NC2=NCCCCC2)c1 | inconclusive [inhibitor, single point] | – |
| CSc1ncc(Cl)c(C(=O)Nc2c(C(=O)Nc3cccc(Cl)c3)oc3ccccc23)n1 | inconclusive [inhibitor, single point] | – |
| CCOC(=O)c1c(S(=O)(=O)N2CCc3ccccc32)c(C)n(C)c1C | inconclusive [inhibitor, single point] | – |
| CCOC(=O)c1ccc(CN2CCCC(C)(C(=O)NCCOC)C2)cc1 (stereo unspecified) | inconclusive [inhibitor, partial curve] | – |

| SMILES | Potency | activity change, negative = growth inhibition |
| --- | --- | --- |
| Cc1ccc(N2CCN(C(=O)c3cnc(N4CCCCC4)c4ccccc34)CC2)c(C)c1 | inconclusive [inhibitor, single point] | – |
| COc1ccc(S(=O)(=O)Nc2ccc(S(=O)(=O)Nc3ccc(F)cc3)cc2)cc1C | inconclusive [inhibitor, single point] | – |
| O=C(NCc1ccccc1Br)c1cnc2sc(N3CCCCCC3)nn2c1=O | active: 4.11 µM | – |
| CCC(CC)NC(=O)CO/N=C/c1ccc(Cl)cc1Cl | inconclusive [inhibitor, single point] | – |
| CCOc1ccccc1C(=O)OCC(=O)Nc1cccc(S(=O)(=O)N2CCCC2)c1 | active: 20.6 µM | – |
| O=C(CSc1ccc(-c2ccco2)nn1)Nc1ccc(F)cc1F | – | inconclusive: -32.1% [inhibitor] |
| CC(C)[C@H](NC(=O)c1ccccc1F)C(=O)Nc1cccc(S(=O)(=O)N2CCOCC2)c1 | inconclusive [inhibitor, partial curve] | – |
| CC(C)N1CCC1(C)C(=O)Nc1cccc2ccccc12 (stereo unspecified) | inconclusive [inhibitor, single point] | – |
| Cc1noc(C)c1S(=O)(=O)Nc1ccc2c(c1)C(=O)N([C@@H](C)CO)C[C@@H](C)[C@@H](CN(C)CC1CCCCC1)OCCCC[C@@H](C)O2 | active: 14.6 µM | – |
| CCOCCCNC(=S)NCCCNc1nc2c(C)c(C)ccc2cc1C#N | inconclusive [inhibitor, single point] | – |
| COc1ccc(C(=O)Nc2ccc(NC(C)=O)cc2)cc1S(=O)(=O)N(C)Cc1ccccc1 | inconclusive [inhibitor, single point] | – |
| CN(C)c1ccc(C(=S)N2CCCCC2)cc1Br | inconclusive [inhibitor, single point] | – |
| Cc1ccc(C(=O)OCC(=O)c2c[nH]c3ccccc23)cc1S(=O)(=O)N1CCOCC1 | inconclusive [inhibitor, partial curve] | – |
| CCc1ccc(OCC(=O)NNC(=O)c2ccc(NC(=O)C3CC3)cc2)cc1 | – | inactive: -0.64% |
| Cc1cc(C)nc(SCC(=O)Nc2cccc(S(=O)(=O)N(C)C)c2)n1 | inconclusive [inhibitor, single point] | – |
| COc1ccc(NC(=O)CCn2cccc2)cc1 | inconclusive [inhibitor, full curve] | – |
| Cc1c(C(=O)O)sc(S(=O)(=O)N2CCN(C(=O)CC(C)c3ccccc3)CC2)c1C(=O)O (stereo unspecified) | – | inactive: 0.178% |
| CCN(CC)S(=O)(=O)c1ccc(N2CCOCC2)c(NC(=O)COc2ccc(Cl)cc2)c1 | inconclusive [inhibitor, single point] | – |
| O=C(NNS(=O)(=O)c1ccc(F)cc1)c1ccc([N+](=O)[O-])cc1Cl | – | inconclusive: -27.9% [inhibitor] |
| C/C=C/c1ccc(OC)c(OC(C)=O)c1 | – | inactive: 0.531% |
| CCn1c(NC(=O)/C=C/c2ccc(F)cc2)nc2ccccc21 | active: 23.1 µM | – |
| COc1cc2ncnc(NCc3ccccc3C)c2cc1OC | inconclusive [inhibitor, partial curve] | – |
| OC(c1ccc(-c2ccccc2)cc1)c1ncc(-c2ccc(C(F)(F)F)cc2)[nH]1 (stereo unspecified) | inconclusive [inhibitor, single point] | – |
| CCOC(=O)Cn1c(=NC(=O)C2COc3ccccc3O2)sc2cc(S(N)(=O)=O)ccc21 (stereo unspecified) | active: 20.6 µM | – |

| SMILES | Potency | activity change, negative = growth inhibition |
| --- | --- | --- |
| COc1cc(/C=C2\SC(=S)N(CCC(=O)Nc3cccc(O)c3)C2=O)cc(OC)c1OC | active: 16.4 µM | – |
| COc1ccc(-n2nc(C(=O)N3CCCC(C)C3)c3c4ccccc4n(C)c3c2=O)cc1Cl (stereo unspecified) | – | inactive: -97.1% |
| Cn1c(N2CCN(C(=O)Nc3ccc(C(F)(F)F)cc3)CC2)nc2ccccc21 | active: 20.6 µM | – |
| CC(C)Cn1nc(C(=O)N2CCc3ccccc32)c2ccccc2c1=O | inconclusive [inhibitor, single point] | – |
| COc1cc(OC)c(NC(=O)CCCn2nc(C)c3c(C)n(-c4ccccc4)nc3c2=O)cc1Cl | inconclusive [inhibitor, single point] | – |
| Cc1ccc2nc(-c3ccc(NS(=O)(=O)c4ccccc4)cc3)sc2c1 | inconclusive [inhibitor, single point] | – |
| COc1ccc(/C=C2\SC(=S)N(CCC(=O)N(CCO)Cc3ccccc3)C2=O)cc1OC | inconclusive [inhibitor, single point] | – |
| O=C(CN1CCCc2ccccc21)NCc1ccccc1Cl | inconclusive [inhibitor, single point] | – |
| COc1cc(/C=C2/CCC/C(=C\c3cc(O)c(OC)c(Cl)c3)C2=O)cc(Cl)c1O | active: 10.3 µM | – |
| COc1cccc(-n2ccnc2SCC(=O)Nc2nccs2)c1 | – | inactive: -10.9% |
| Cc1nn2c(C)c(C(=O)NCc3ccco3)cnc2c1-c1ccccc1 | inconclusive [inhibitor, single point] | – |
| Cc1ccc(NS(=O)(=O)c2coc(C(N)=O)c2)cc1F | – | inactive: -13.7% |
| CC(C)(C)c1ccc(OCC(=O)Nc2cccc(S(=O)(=O)NC3=NCCCCC3)c2)cc1 | – | inactive: -60.2% |
| CCOc1cc(C(=O)Nc2ccc(NC(C)=O)cc2)ccc1OCC(=O)N1CCCCC1 | inconclusive [inhibitor, partial curve, poor fit] | – |
| Cc1nn(C(=O)c2ccc(Cl)cc2)c(C)c1S(=O)(=O)N1CCCCCC1 | – | inactive: 4.84% |
| COc1ccc(C(=O)NC(=S)N2CCN(c3ccccc3OC)CC2)cc1 | inconclusive [inhibitor, single point] | – |
| O=c1c2ccccc2c(-c2ccccc2)nn1-c1ccccn1 | – | inactive: -23% |
| O=[N+]([O-])c1ccc(N2CCOCC2)cc1N1CCCCC1 | – | inactive: -11.6% |
| COc1cccc(C2=Nn3c(nnc3-c3ccccc3O)SC2)c1 | inconclusive [inhibitor, partial curve, poor fit] | – |
| O=c1[nH]c(NCCCO)nc2c1C1(CCCC1)Cc1ccccc1-2 | – | inconclusive: -30.2% [inhibitor] |
| Cc1cccc(NC(=O)CNC(=O)COC(=O)c2ccco2)c1C | – | inactive: 4.71% |
| CCN(CC)c1nc2ccccc2nc1C(=O)Nc1cc(OC)c(OC)c(OC)c1 | active: 13 µM | – |
| CSCc1cc(C(=O)NC2CC2)c(N)s1 | inconclusive [inhibitor, single point] | – |

Reference: PubChem BioAssay AID686978 (National Center for Advancing Translational Sciences (NCATS), 2013)
